# Laboratory results: the supplement of paper PMC11417369
# ± gives the standard deviation of the averaged measurements. The list shows a part of the results.
# Tested on: PfAP2-LT AP2 domain (GST-tagged)
# Assay: gcPBM binding intensity (ln(normalized median fluorescence intensity)); higher = stronger DNA binding
# In short: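 Each value is the highest Masliner-normalised natural-log median intensity across replicate spots of either orientation of a probe. The probes were primer-extended double-stranded 36-bp intergenic genomic sequences on an Agilent 4 × 180k array, alongside negative controls, exposed for 1 h to GST-tagged P. falciparum DNA-binding domains expressed in E. coli. Bound protein was picked up with Alexa488 anti-GST antibody and scanned at 488 nm.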
row,Sequence,gcPBM binding intensity (ln)
1,AATTGAAAAATATATAAGAAGAAATATATATATGTT [GTGCAC_negctrl_site97],8.63 ± 0.52
2,TTAATATGAAATAAATGTACATAATACATAATAAAA [XGTACX_site6194],8.74 ± 0.49
3,TTTATTAATAAACACACACACACACCCAAAATAAAA [CACACA_site7966],10.2 ± 0.18
4,AAATAGAAGAAATATGCACACATACATTGAAATGTT [CACACA_site7996],9.05 ± 0.38
5,TTTTCTTCATAAATGCTGCACTGGTTTAAGCATGAT,8.6 ± 0.46
6,AAAGAAAAAAAAATTACACACATATATTATATATAT [CACACA_site3211],8.8 ± 0.4
7,CCTTAATATTTTTGAAGTACATATTTATTTTACAAG [XGTACX_site3049],8.46 ± 0.54
8,TATTAACAAATTTATGTGCACTGAGGACAAATATAT,8.97 ± 0.23
9,ATTTATATCTCCATATGTTCAAAACTTTCACAAATA [TGCATGCA_negctrl_site108],8.48 ± 0.41
10,AAAATAAGTAATTACTAATATATAAATTAATAATTA [CACACA_negctrl_site1602],8.51 ± 0.49
11,AATATAAATTAATTTACACACTAAAAAATATATATA [CACACA_site3778],8.72 ± 0.47
12,CATATGTAGGGAACAATATAATATGCTTTGAATATG [GTGCAC_negctrl_site524],8.81 ± 0.44
13,TTTTAATTAGCTAGACGTACAATAATATACAAATAT [XGTACX_site6068],8.63 ± 0.31
14,ATTTTTTTAAGATAAGAAAAATAAAGTGTGGATATT [XGTACX_negctrl_site476],8.37 ± 0.3
15,TATGTATTCATATGTTGTACATTATATATAATAAGT [XGTACX_site6589],8.7 ± 0.34
16,AGCACACAAAAAAAAAAAAAAAAAAAAAAAGGAATG [GTGCAC_negctrl_site73],8.71 ± 0.57
17,AAATCAGAACCTATTTGTACATATACAAAAATGATT [XGTACX_site2421],8.74 ± 0.38
18,ATTATGTATACATAAACACACATATTTATAAAAAAA [CACACA_site6261],8.98 ± 0.4
19,ATATATTTATATATATGTACATATTATGTTAAGAAA [XGTACX_site1111],8.67 ± 0.49
20,GCTTGTACATTTTTAAAAAATGACTTCGAAAGGAAT [CACACA_negctrl_site453],8.53 ± 0.42
21,TTCCTTATTATTATTTTACACACGTCCTAATAAGAG [CACACA_site8364],9.09 ± 0.49
22,TTTATGCATAGAGAAACATGCAAGAAAGATGCAAAA [TGCATGCA_site726],8.84 ± 0.44
23,AACTCTTAGAATGACGGTACAGTATAATAGGTGAAC [XGTACX_site7163],8.92 ± 0.49

row,Sequence,gcPBM binding intensity (ln)
1,ATATAATGAATTATTAGAAAATAAAATGAATAAAGT [CACACA_negctrl_site690],8.93 ± 0.49
2,ATATATATATATAGTGCACACTTAAGAATATAAAGA [CACACA_site4771],9.1 ± 0.43
3,TGTTATATAATTTAGCGTACAGGTTATAGGACGGAT [XGTACX_site8823],8.88 ± 0.28
4,AACTATTACTTTCTTTCACACATTTTTTTTTTTTTT [CACACA_site5355],8.94 ± 0.59
5,ATCATATAAACATATTGTACTTAAATACATAATATT [XGTACX_site3800],8.59 ± 0.34
6,CAAACCCACGGACACACACACACAAAAATGATTAAA [CACACA_site5365],9.71 ± 0.38
7,GGATACGCTTTTGTACCACTCCCCCTTTTGGGAATA [CACACA_negctrl_site1363],8.79 ± 0.24
8,TTTATTTATTTATGTGGTACTTCAAAAATATATACT [XGTACX_site355],8.61 ± 0.47
9,AAATTGGGTACAAATACACACACATATATATATTAA [CACACA_site8745],9.43 ± 0.35
10,ATAGATCCTAATGTTGTGCACATGTAAATTAATATA,8.86 ± 0.47
11,TTTATACAATAAAATGCATGCAAGTATCTATTTTAT [TGCATGCA_site210],8.89 ± 0.39
12,TCAGATATATAGAATACACACATGGATATAAGAAAT [CACACA_site7831],9.19 ± 0.38
13,TTTTTGTAATATTATGATGTCATATATATATATATA [XGTACX_negctrl_site618],9.035 ± 0.078
14,ATATTTTGTAACTATACACACATATATATATTATAA [CACACA_site3062],8.91 ± 0.31
15,CAAAAGAATATATGTAGTACATGTTGTAGATAATAT [XGTACX_site1044],9.13 ± 0.42
16,CGCGAAGTAGCATTCACACACAGCAAAATATAAATA [CACACA_site7608],9.38 ± 0.43
17,AAAAAACAAAAAAAAAAAAAAATAATACAATATAAT [CACACA_negctrl_site1630],8.63 ± 0.49
18,ACCATATAAATAAACACACACACACCGATATATATA [CACACA_site5310],10.09 ± 0.085
19,TATAATGAACATATGTGTACATATATTTTTTAAATT [XGTACX_site8736],8.76 ± 0.37
20,GCACAACATATATTATCACACACATATATATATATA [CACACA_site8619],10.03 ± 0.092
21,AAAAAAAAAAAATACACACACACATATTTATTTATA [CACACA_site6483],9.61 ± 0.26
22,AAAAAAAAAAATAAATGTACAAAATAATGGGGAACA [XGTACX_site8723],9.15 ± 0.57
23,GTGAATGATTTAAGTACACACCGGTATTTATTCAAA [CACACA_site4950],8.88 ± 0.39

row,Sequence,gcPBM binding intensity (ln)
1,ATATATATATATATATGTACATATTTTATTTAATTT [XGTACX_site1807],9.49 ± 0.32
2,TGTATTAAAAATTTGGTGCAACTTTTACATAATAAT,8.6 ± 0.42
3,TTTTTTTTTTTTTTTTGTACGAATAAACAAGTTATT [XGTACX_site5473],8.32 ± 0.44
4,AATATTTATATTAACTGTACAGAAAATATCTTTGCT [XGTACX_site8130],8.68 ± 0.48
5,CATAAGATTTTTACATGTACATATTTATAATATATT [XGTACX_site6578],8.96 ± 0.33
6,GATATATAAATTGACACACACATATATACCTATATA [CACACA_site6689],9.34 ± 0.34
7,TTCTTTTTTTTTTTTTCATGTATATTAAACTTTTCA [TGCATGCA_negctrl_site592],8.59 ± 0.54
8,AATATAAAAATGTTTACACACACACCGAAATATATT [CACACA_site8800],9.51 ± 0.28
9,TATGCCATGGCATAATGTACATAAGTGACCTCATAA [XGTACX_site1294],8.9 ± 0.46
10,GATTCGATCTATATATGTACACATAAATATTTTTTG [XGTACX_site7015],8.84 ± 0.41
11,TATATATATATATATATATATATATATGTGTATGTA [TGCATGCA_negctrl_site255],10.2 ± 0.26
12,TATATATTTATTTATTGTACACTCTTTAAGAATACA [XGTACX_site2569],8.59 ± 0.42
13,AATAAAATTGACCATTCACACAAGAAAAATTAATCA [CACACA_site5636],8.71 ± 0.42
14,ATACACAAGAATATGTTGCACTTTTATATTCGTATG,9.02 ± 0.45
15,AAAAGAATTAATTTATGTACTAATTTCAAGAAATAA [XGTACX_site3241],8.28 ± 0.54
16,CTTTTTCCTTTATAAAGTACTTAAAATATTTAGATA [XGTACX_site4259],8.31 ± 0.46
17,ATATATTATCAACTTACACACAGAAAACTATAATAA [CACACA_site6275],9.03 ± 0.33
18,TCCTTACACACACTTTTTTTTTTTTTTTTTTCTACA [GTGCAC_negctrl_site263],9.16 ± 0.53
19,CTCGATCAAGTGTATGCATGTACCAGTGAACAAAAA [TGCATGCA_site635],8.9 ± 0.54
20,ATATATTTAAAAAAATGTACAAATCATAAATGCAAG [XGTACX_site4230],8.77 ± 0.39
21,TATAATGTTGATGATAGTACGTATGAGTTCAAAAAA [XGTACX_site3651],8.82 ± 0.42
22,AAAAAATTATACCAGTGTACTTTTTTGGTTTTTCTT [XGTACX_site2601],8.79 ± 0.52
23,AGAAATTAAATGTAAGCACACATAAATTATACACAT [CACACA_site9098],9.12 ± 0.42

row,Sequence,gcPBM binding intensity (ln)
1,TTCTTTATTATATGCACACGTACATATAATATATAT [CACACA_site2018],9.09 ± 0.44
2,ATTTATATTAATGGATAAATAAATGTGTACTTGATA [CACACA_negctrl_site24],8.62 ± 0.36
3,ATCAACAAAACATACACACACATATAGATTTATATA [CACACA_site7415],9.55 ± 0.32
4,AAAAAAAAAAAACACACACACATATATATATATATA [CACACA_site732],10.4 ± 0.19
5,TTATGTAAAATCGATACATGCATTAATCATTTTATA [TGCATGCA_site493],8.51 ± 0.45
6,TATGATATGTTATACACACACGTATTTATGAATTGA [CACACA_site7591],9.09 ± 0.32
7,TCATATTTCCATAGGAGTACATAAAAAAAATAATAT [XGTACX_site7601],8.63 ± 0.51
8,AAAATGTAGAAATGGGTGCACACACATATATAATAT,9.5 ± 0.45
9,TATATATATAAAAGTTGTACAGTGTTTTATATAGTT [XGTACX_site7085],8.74 ± 0.36
10,AATTAGCTATTTAAAAATATATAAAATTTATATATA [CACACA_negctrl_site390],8.25 ± 0.41
11,GAAATAGAGAGACACACACACATATATTTATGTATT [CACACA_site7794],9.78 ± 0.4
12,ATCATATTGAATATTTAACACACATTTCGCTTAATT [CACACA_site8652],9.08 ± 0.49
13,TTTTTCTTTTGATGTTGTACATATATATTATATATA [XGTACX_site2754],8.77 ± 0.38
14,TTTTCAATTAATAATACACACATGTATATATCATTA [CACACA_site7539],8.81 ± 0.43
15,TGATGTTGTAACAAAAGTACACACACATTTCTATAA [XGTACX_site5837],9.08 ± 0.38
16,TAATGCATTATTAGAATACACACCATACGCATATTT [CACACA_site289],9.08 ± 0.3
17,AACTGTACAATTTTTGTGCACAATAATTATTAATAT [GTGCAC_site9462],8.84 ± 0.33
18,ATATTTTTATTTAAACGTACATACACGTTGAAAAGA [XGTACX_site4567],8.43 ± 0.4
19,TGCTATATAATATGAGCACACATAAGATTTGGTGTT [CACACA_site8148],8.98 ± 0.47
20,AATCTGATTTGTATATGTACACAAATATTTTTATTT [XGTACX_site5295],8.99 ± 0.53
